The record followed here is US5242908A, “Use of benzylphosphonic acid derivatives for the treatment of diseases caused by viruses” (priority 1990, dated 1993).

One experiment relates to Influenza A2. To be noted: twice daily for 2.5 days; for Survivors: groups of 5 mice.
The subject of experiment [1] is Friend leukemia virus (FLV). The class given is in vivo, NMRI mice. To be noted: once per day, 10 days.

The structures appear in SMILES notation. Values joined by “and” are separate entries in the source; they are usually repeats but may differ in a detail not shown here. Equal entries are not always repeated. Where two headings read alike, the source gives them in different places.

With `CC(C)OP(=O)(Cc1ccc(I)cc1)OC(C)C` [T, diisopropyl 4-iodobenzylphosphonate], the Average survival time is on record as 7.0 days with Influenza A2 (sc 0.25 mg/kg), 8.0 days in the experiment with Influenza A2 (sc 2.5 mg/kg) and 7.0 days in the experiment with Influenza A2 (sc 25 mg/kg). In addition, the Survivors in the experiment with Influenza A2 (sc 0.25 mg/kg) is listed as 3; in the experiment with Influenza A2 (sc 2.5 mg/kg), 4; in the experiment on Influenza A2 (sc 25 mg/kg) it was 4.

Take `CCOC(=O)Cc1ccccc1CP(=O)(OCC)OCC` [Y]: the Average survival time came to 8.3 days in the experiment with Influenza A2 (po 0.25 mg/kg), 6.7 days in the experiment with Influenza A2 (po 2.5 mg/kg) and 8.0 days in the experiment on Influenza A2 (po 25 mg/kg). Further, the figures for the Survivors in the experiment on Influenza A2 (po 0.25 mg/kg), with Influenza A2 (po 2.5 mg/kg) and in the experiment with Influenza A2 (po 25 mg/kg) were 2, 2 and 4, respectively.

On to `O=C(O)c1ccccc1CP(=O)(O)O` [AF, 2-Carboxybenzylphosphonic acid], for which the values for the Average survival time with Influenza A2 (po 0.25 mg/kg) and with Influenza A2 (po 25 mg/kg) were 10.0 days and 7.2 days, respectively. In addition, the Survivors was 4 in the experiment with Influenza A2 (po 0.25 mg/kg), 5 in the experiment with Influenza A2 (po 2.5 mg/kg) and 0 in the experiment on Influenza A2 (po 25 mg/kg).

For the compound `CCCCOP(=O)(Cc1ccccc1C)OCCCC` [M, di-n-butyl 2-methylbenzylphosphonate], the Average survival time with Influenza A2 (po 0.25 mg/kg), in the experiment on Influenza A2 (po 2.5 mg/kg) and in the experiment with Influenza A2 (sc 2.5 mg/kg) was 7.0 days throughout. For the same compound, the Survivors is reported as 4 in the experiment with Influenza A2 (po 0.25 mg/kg); 4 in the experiment with Influenza A2 (po 2.5 mg/kg); 5 in the experiment on Influenza A2 (po 25 mg/kg); 5 in the experiment on Influenza A2 (sc 0.25 mg/kg); 3 in the experiment with Influenza A2 (sc 2.5 mg/kg); 5 in the experiment on Influenza A2 (sc 25 mg/kg). In addition, the “FLV Survival rate” value in experiment [1] (ip 50 mg/kg) came to 90%. Also, the Relative spleen weight in experiment [1] (ip 50 mg/kg) was 7.46%.

Regarding `CCOP(=O)(Cc1ccccc1Cl)OCC` [I, diethyl 2-chlorobenzylphosphoante], the Average survival time in the experiment on Influenza A2 (po 0.25 mg/kg) is 6.5 days; in the experiment with Influenza A2 (po 2.5 mg/kg), 6.0 days; with Influenza A2 (po 25 mg/kg), 7.0 days. The Survivors worked out at 3 in the experiment on Influenza A2 (po 0.25 mg/kg), 4 in the experiment with Influenza A2 (po 2.5 mg/kg) and 3 with Influenza A2 (po 25 mg/kg).

Consider `CCOP(=O)(OCC)C(C)c1ccccc1` (stereo not shown) [V], for which the results for the Average survival time in the experiment on Influenza A2 (po 0.25 mg/kg), in the experiment on Influenza A2 (po 2.5 mg/kg) and in the experiment with Influenza A2 (po 25 mg/kg) were 7.0 days, 9.0 days and 7.5 days, respectively. Besides, the Survivors with Influenza A2 (po 0.25 mg/kg) is 4; in the experiment with Influenza A2 (po 2.5 mg/kg) it was 3; with Influenza A2 (po 25 mg/kg) it was 3.

Consider `CCOP(=O)(Cc1ccc(Cl)cc1)OCC` [P, diethyl 4-chlorobenzylphosphonate], for which the Average survival time came to 8.5 days in the experiment on Influenza A2 (po 0.25 mg/kg), 7.0 days in the experiment with Influenza A2 (po 2.5 mg/kg) and 6.5 days in the experiment on Influenza A2 (po 25 mg/kg). Moreover, the Survivors is 3 in the experiment on Influenza A2 (po 0.25 mg/kg), 4 with Influenza A2 (po 2.5 mg/kg) and 3 with Influenza A2 (po 25 mg/kg).

In the experiment with Influenza A2 (po 0.25 mg/kg), `CCOP(=O)(Cc1cccc(C(=O)OC)c1)OCC` [X] gave an Average survival time of 7.0 days and a Survivors of 3. Moreover, in the experiment with Influenza A2 (po 2.5 mg/kg), the Average survival time was 6.0 days and the Survivors is 4.

Regarding `NC12CC3CC(CC(C3)C1)C2` [amantadine, reference compound], the Survivors with Influenza A2 (po 80 mg/kg) and in the experiment on Influenza A2 (sc 80 mg/kg) was 5 throughout.

On to `Cc1ccccc1CP(=O)(OCCCl)OCCCl` [N, di-(2-chloroethyl) 2-methylbenzylphosphonate], for which the Average survival time is given as 8.0 days in the experiment on Influenza A2 (po 0.25 mg/kg), 8.0 days with Influenza A2 (po 2.5 mg/kg) and 6.5 days in the experiment with Influenza A2 (po 25 mg/kg). In addition, the Survivors in the experiment on Influenza A2 (po 0.25 mg/kg) came out at 4; in the experiment with Influenza A2 (po 2.5 mg/kg) it was 3; in the experiment on Influenza A2 (po 25 mg/kg) it was 3.

For `CCOP(=O)(Cc1ccccc1F)OCC` [H, diethyl 2-fluorobenzylphosphonate], the Average survival time with Influenza A2 (po 0.25 mg/kg) turned out to be 5.5 days; in the experiment on Influenza A2 (po 2.5 mg/kg), 8.0 days; with Influenza A2 (po 25 mg/kg) it was 8.5 days. The figures for the Survivors in the experiment with Influenza A2 (po 0.25 mg/kg), with Influenza A2 (po 2.5 mg/kg) and in the experiment with Influenza A2 (po 25 mg/kg) were 3, 4 and 3, respectively.

With `Cc1ccc(C(=O)Nc2ccc(S(=O)(=O)O)c3cc(S(=O)(=O)O)cc(S(=O)(=O)O)c23)cc1NC(=O)c1cccc(NC(=O)Nc2cccc(C(=O)Nc3cc(C(=O)Nc4ccc(S(=O)(=O)O)c5cc(S(=O)(=O)O)cc(S(=O)(=O)O)c45)ccc3C)c2)c1` [suramin, Suramin, reference compound], in experiment [1] (ip 50 mg/kg, 50 mg/kg), the “FLV Survival rate” value is 100% and 60%; the Relative spleen weight was 6.70% and 6.17% and 4.12%.

Consider `CCOP(=O)(Cc1cccc(CP(=O)(OCC)OCC)c1)OCC` [AD, 1,3-Phenylene-bis(diethyl methylphosphonate)], for which the Average survival time in the experiment on Influenza A2 (sc 0.25 mg/kg) stood at 7.0 days; in the experiment on Influenza A2 (sc 2.5 mg/kg) it was 6.5 days; in the experiment on Influenza A2 (sc 25 mg/kg), 7.0 days. For the same compound, the Survivors with Influenza A2 (sc 0.25 mg/kg) is 2; with Influenza A2 (sc 2.5 mg/kg) it was 3; in the experiment on Influenza A2 (sc 25 mg/kg), 4.

Turning to `CCOP(=O)(Cc1ccc(C(F)(F)F)cc1)OCC` [AB, Diethyl 4-trifluoromethylbenzylphosphate], the Average survival time came out at 9.0 days with Influenza A2 (po 0.25 mg/kg), 6.0 days with Influenza A2 (po 2.5 mg/kg) and 7.5 days in the experiment on Influenza A2 (po 25 mg/kg). The Survivors with Influenza A2 (po 0.25 mg/kg) is given as 4; in the experiment on Influenza A2 (po 2.5 mg/kg), 4; in the experiment with Influenza A2 (po 25 mg/kg) it was 1.

Take `CCOP(=O)(Cc1ccc(C#N)cc1)OCC` [AL, Diethyl 4-cyanobenzylphosphonate]: the Average survival time in the experiment with Influenza A2 (po 0.25 mg/kg) is given as 8.0 days; in the experiment with Influenza A2 (po 2.5 mg/kg), 7.3 days. Also, the Survivors with Influenza A2 (po 0.25 mg/kg) was determined as 0; in the experiment with Influenza A2 (po 2.5 mg/kg) it was 2; with Influenza A2 (po 25 mg/kg), 5.

As for `CCOP(=O)(Cc1ccc(OC)cc1)OCC` [Z, Diethyl 4-methoxybenzylphosphonate], the Average survival time came to 7.0 days in the experiment on Influenza A2 (po 0.25 mg/kg), 7.0 days in the experiment with Influenza A2 (po 2.5 mg/kg) and 7.3 days with Influenza A2 (po 25 mg/kg). Also, the Survivors in the experiment with Influenza A2 (po 0.25 mg/kg) was 3; in the experiment with Influenza A2 (po 2.5 mg/kg), 4; in the experiment on Influenza A2 (po 25 mg/kg) it was 1.

Consider `CCOP(=O)(Cc1ccccc1I)OCC` [R, diethyl 2-iodobenzylphosphonate], for which the Average survival time amounted to 9.0 days in the experiment with Influenza A2 (sc 0.25 mg/kg), 7.0 days in the experiment with Influenza A2 (sc 2.5 mg/kg) and 6.8 days with Influenza A2 (sc 25 mg/kg). Also, the Survivors was 3 with Influenza A2 (sc 0.25 mg/kg), 4 with Influenza A2 (sc 2.5 mg/kg) and 0 in the experiment with Influenza A2 (sc 25 mg/kg).

As to `CCOP(=O)(Cc1ccc(C)cc1)OCC` [G, diethyl 4-methylbenzylphosphonate], the Survivors stood at 5 in the experiment with Influenza A2 (po 0.25 mg/kg), 3 with Influenza A2 (po 2.5 mg/kg) and 1 with Influenza A2 (po 25 mg/kg). Moreover, the Average survival time amounted to 6.5 days with Influenza A2 (po 2.5 mg/kg) and 7.7 days in the experiment on Influenza A2 (po 25 mg/kg).

With `CCOP(=O)(Cc1cccc(Br)c1)OCC` [B, diethyl 3-bromobenzylphosphonate], in experiment [1] (ip 50 mg/kg), the “FLV Survival rate” value is recorded as 80% and the Relative spleen weight is reported as 6.60%.

Regarding `CCOP(=O)(Cc1ccc(Br)cc1)OCC` [D, diethyl 4-bromobenzylphosphonate], the Average survival time came to 8.0 days in the experiment with Influenza A2 (po 0.25 mg/kg), 7.0 days with Influenza A2 (sc 0.25 mg/kg), 8.0 days in the experiment with Influenza A2 (sc 2.5 mg/kg) and 7.0 days in the experiment on Influenza A2 (sc 25 mg/kg). Besides, the Survivors in the experiment on Influenza A2 (po 0.25 mg/kg) worked out at 4; with Influenza A2 (po 2.5 mg/kg) it was 5; in the experiment on Influenza A2 (po 25 mg/kg), 5; in the experiment on Influenza A2 (sc 0.25 mg/kg), 4; in the experiment on Influenza A2 (sc 2.5 mg/kg), 2; with Influenza A2 (sc 25 mg/kg) it was 4.

With `Cc1ccccc1CP(=O)(OC(C)C)OC(C)C` [L, diisopropyl 2-methylbenzylphosphonate], the Average survival time is 8.0 days with Influenza A2 (po 0.25 mg/kg); 6.0 days in the experiment on Influenza A2 (po 2.5 mg/kg); 9.5 days in the experiment with Influenza A2 (sc 0.25 mg/kg); 6.8 days with Influenza A2 (sc 2.5 mg/kg); 10.0 days in the experiment on Influenza A2 (sc 25 mg/kg). The Survivors with Influenza A2 (po 0.25 mg/kg) was determined as 4; in the experiment on Influenza A2 (po 2.5 mg/kg), 3; with Influenza A2 (po 25 mg/kg), 5; in the experiment on Influenza A2 (sc 0.25 mg/kg) it was 3; with Influenza A2 (sc 2.5 mg/kg), 0; in the experiment on Influenza A2 (sc 25 mg/kg), 4.

Consider `CCOP(=O)(Cc1ccccc1CP(=O)(OCC)OCC)OCC` [AC, 1,2-Phenylene-bis(diethyl methylphosphonate)], for which the results for the Average survival time with Influenza A2 (sc 0.25 mg/kg), in the experiment on Influenza A2 (sc 2.5 mg/kg) and in the experiment with Influenza A2 (sc 25 mg/kg) were 6.3 days, 7.0 days and 6.0 days, respectively. Besides, the values for the Survivors in the experiment on Influenza A2 (sc 0.25 mg/kg), in the experiment on Influenza A2 (sc 2.5 mg/kg) and in the experiment with Influenza A2 (sc 25 mg/kg) were 2, 1 and 4, respectively.

In the case of `CCOP(=O)(Cc1ccccc1C(=O)O)OCC` [AE, Diethyl 2-carboxybenzylphosphonate], the Average survival time in the experiment with Influenza A2 (po 0.25 mg/kg) and in the experiment on Influenza A2 (po 2.5 mg/kg) was 7.0 days each time. Besides, the Survivors came to 2 in the experiment with Influenza A2 (po 0.25 mg/kg), 4 in the experiment with Influenza A2 (po 2.5 mg/kg) and 5 with Influenza A2 (po 25 mg/kg).

On to `Cc1cn([C@H]2C[C@H](N=[N+]=[N-])[C@@H](CO)O2)c(=O)[nH]c1=O` [AZT, azidothymidine, reference compound], for which the “FLV Survival rate” value in experiment [1] (ip 50 mg/kg), in experiment [1] (po 14.5 mg/kg), in experiment [1] (po 15.5 mg/kg) and in experiment [1] (po 18.0 mg/kg) was 100% throughout. Further, the Relative spleen weight in experiment [1] (ip 50 mg/kg) turned out to be 5.40%; in experiment [1] (po 14.5 mg/kg), 1.81%; in experiment [1] (po 15.5 mg/kg), 3.26%; in experiment [1] (po 18.0 mg/kg), 6.42%.
